Assay results: PubChem BioAssay AID1508623 (National Center for Advancing Translational Sciences (NCATS), 2021)
About 450 (0.94%) of roughly 48,000 compounds were called active. Inconclusive results (about 19%) are left out. Calls come from the whole dose curve; as a rule, active = well fitted inhibition curve with a large enough effect; inconclusive = small, poorly fitted or top-dose-only effect; inactive = no such curve, though single readings can be large or run the other way. The list shows a part of the results.

assay: Primary qHTS for Identification of Small Molecule Inhibitors of Huntingtin Promoter Activity; details: HEK293 HTT promoter firefly luciferase reporter (activity 0% = vehicle and -100% = no light), 24 h; series mostly up to 57.5 µM; activity change, negative = inhibition: at the top concentration; note: nearly all actives have a fitted effect of over 50% in size
How it was run: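 Luminescence was read after Dual-Glo reagent and a 10 min room-temperature incubation. Values were normalized to vehicle (0% activity) and zero RLU (-100% activity). Reporter HEK293 cells had been exposed to compounds (up to 57.5 uM final) for 24 h.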

Activity change, negative = inhibition, inactive:
Cc1cc(Cl)ccc1OCC(=O)Nc1c(C(=O)c2ccccc2)oc2ccccc12 -9.29%
O=C(CSc1ncc(-c2ccccc2)[nH]1)Nc1cccc(C(F)(F)F)c1 -7.4%
Cc1ccccc1CCNC(=O)C1CCN(c2nc3ccccc3nc2C(F)(F)F)CC1 -22.1%
COC(=O)c1cc(NC(=O)c2sc3ncn(Cc4cccc(F)c4)c(=O)c3c2C)cc(C(=O)OC)c1 -2.34%
COc1cc(CN(C(=O)c2cccc(C)c2)c2ccccn2)cc(OC)c1OC -30.5%
Cc1ccc(-n2c(SCC(=O)NCc3ccccc3)nc3c([nH]c4ccccc43)c2=O)cc1 -16.4%
COc1ccccc1NC(=O)CCS(=O)(=O)c1cc2c3c(c1)CCN3C(=O)CC2 4.42%
O=C(NCc1ccccc1Cl)c1cc(=O)[nH]c2ccc(S(=O)(=O)N3CCCCC3)cc12 -3.06%
CC[C@@H]1C=C(C)C[C@H](C)C[C@H](OC)[C@H]2O[C@@](O)(C(=O)C(=O)N3CCCC[C@@H]3C(=O)O[C@H](C(C)=C[C@@H]3CC[C@H](Cl)[C@H](OC)C3)[C@H](C)[C@@H](O)CC1=O)[C@H](C)C[C@H]2OC -10.6%
CCC1CCCCN1C(=O)c1nn(-c2ccc(OC)cc2)c(=O)c2c1c1ccccc1n2C (configuration not stated) -15%
CCN(Cc1ccccc1)C(=O)CN1C(=O)COc2ccc(S(=O)(=O)N(CC)CC)cc21 -14.5%
Cc1ccc(C)c(N2CCN(C(=O)CCn3c(=O)c4cccn4c4cccnc43)CC2)c1 -1.99%
COc1ccccc1Nc1nc(-c2ccccc2Cl)c2cc(Br)ccc2n1 -13.7%
CC1=C(C(=O)Nc2ccc(Cl)cc2)C(C(C)C)n2nc(SCc3ccc(Cl)cc3)nc2N1 (configuration not stated) -9.45%
O=C(NCC1CCN(Cc2cccc(Cl)c2)CC1)c1cc2ccc3cccnc3c2[nH]1 -4.5%
COc1ccc(OC)c(CCNC(=O)C2=C(C)C(=O)OC23CCC(C)CC3)c1 (configuration not stated) -26.3%
Cc1cc(C)c2c(CC(=O)Nc3ccc(S(=O)(=O)Nc4ncccn4)cc3)coc2c1 18%
CCc1cccc(C)c1NC(=O)Cn1ccn(Cc2ccc(Cl)cc2)c(=O)c1=O -29.4%
COc1ccc(NC(=O)CN(C)S(=O)(=O)c2cnc[nH]2)cc1Cl 2.86%
Cc1cc(CCCOc2c(C)cc(-c3noc(C(F)(F)F)n3)cc2C)on1 4.28%
Cc1ccc(-c2[nH]c(-c3ccccc3)nc2SCC(=O)NCC2CCCO2)cc1 (configuration not stated) -26%
COc1ccc(-c2noc(COc3ccc(Br)cc3C)n2)cc1OC -30.5%
CCc1ccc(OCC(=O)Nc2ccc(-c3nc4ncccc4o3)cc2)cc1 32.8%
CCC(O)c1cc2c(cc1NC(=O)c1ccccc1F)OCCO2 (configuration not stated) -3.59%
Cc1ccc(OCC(=O)Nc2cccc(C(=O)OCc3cc(=O)n4nc(C)sc4n3)c2)cc1 20.4%
OCCOCCN1CCN(C(c2ccccc2)c2ccc(Cl)cc2)CC1 (configuration not stated) -9.62%
O=C(O)c1ccc(NC(=O)c2cn(-c3ccccc3)nc2-c2ccc(Br)cc2)cc1 -10.1%
COc1cccc(CNC(=O)C(=O)Nc2ccc3nc4n(c(=O)c3c2)CCCCC4)c1 2.2%
Cc1ccc(N2CCN(C(=O)c3cc(S(=O)(=O)N4CCCCC4)c[nH]3)CC2)c(C)c1 16.2%
Cc1ccc(-c2cc(C(=O)Oc3ccccc3Cl)no2)cc1C 4.34%
Cc1ccc2nc(Cl)c3cc(C(=O)NC4CCC(C)CC4)sc3c2c1 (configuration not stated) 6.65%
Cc1cccc(OCC(=O)N(Cc2ccccc2)c2ccccn2)c1 -10.7%
COc1ccc(CCNC(=O)c2ccc3c(Cl)c4c(nc3c2)CCCC4)c(OC)c1 -25.5%
COC(=O)c1cnc(N2CCN(c3ccc(F)cc3)CC2)c2ccccc12 -14.7%
CC1CCC(NC(=O)c2ccc(CS(=O)(=O)c3c(Cl)cccc3Cl)o2)CC1 (configuration not stated) -28.7%
COc1ccc(OCC(=O)Nc2ccccc2C(=O)OCc2cc(=O)n3nc(C)sc3n2)cc1 -8.82%
O=C(NCCN1CCCCC1)c1ccc(Cn2c(SCc3cccc(F)c3)nc3cccnc32)cc1 -8.35%
COC(=O)c1ccc(CSc2nc3c(c(=O)[nH]2)CCC3)cc1 -7.06%
CCc1ccccc1NC(=O)Cn1c(=O)n(Cc2ccco2)c(=O)c2sc3ccccc3c21 -13.2%
Cc1ccc(NC(=O)Cn2c(=O)n(Cc3ccc4c(c3)OCO4)c(=O)c3ccccc32)c(C)c1 -5.29%
Cc1ccc(C)c(N2CCN(S(=O)(=O)c3cnc(N)nc3)CC2)c1 -15.7%
Cc1ccc2nc(N3CCN(c4cccc(C)c4C)CC3)c3nncn3c2c1 -9.97%
CC(C)CCn1c(=O)c2sccc2n2c(CCCC(=O)NC3CCC(C)CC3)nnc12 (configuration not stated) -17.9%
COc1ccc(CCNC(=O)CCSCc2ccccc2Cl)cc1OC -4.24%
O=C(NCCS(=O)(=O)N1CCN(c2ccc(F)cc2)CC1)C1CC(=O)N(c2ccc(F)cc2)C1 (configuration not stated) -5.01%
CC(C)c1ccc2oc(-c3ccc(NC(=O)c4cc5ccccc5o4)cc3)nc2c1 -28.2%
Cc1cc(C)n(-c2nc3cc(Cl)ccc3nc2Nc2ccc(CC(=O)O)cc2)n1 1.82%
COc1ccc2nc(NC(=O)c3nc(SCc4ccccc4F)ncc3Cl)sc2c1 -9.85%
COc1ccccc1CNC(=O)C1CCN(S(=O)(=O)c2ccc3c(ccn3C)c2)CC1 -17.5%
COC(=O)c1c(-c2cccs2)csc1NC(=O)c1ccc(OC)c(OC)c1 1.02%
CCNC(=O)C1CCN(c2nnc(C)c3c(C)n(-c4ccc(OC)cc4)nc23)CC1 -2.31%
Cc1ccc2c(c1)NC(=O)c1cccnc1O2 -15.7%
Cc1ccc(-c2nc(CS(=O)(=O)CC(=O)NCCc3ccccc3)c(C)o2)cc1 -2.68%
COc1ccc(CNC(=O)Cn2nc(N3CCN(c4ccccc4)CC3)ccc2=O)c(OC)c1 4.18%
CC1=C(C(=O)Nc2ccccc2)C(c2ccncc2)n2nc(SCc3ccccc3F)nc2N1 (configuration not stated) -6.72%
O=C(Nc1ccc(OCc2cc(=O)n3ccccc3n2)cc1)c1ccccc1Cl 18%
Cc1cccc(OCC(O)Cn2c(=N)n(CCN3CCCCC3)c3ccccc32)c1 (configuration not stated) -26.3%
CCn1cc(C(=O)NCc2ccc(C)cc2)c(=O)c2cc(S(=O)(=O)N(C)C3CCCCC3)ccc21 -0.951%
CCc1ccc(CN(Cc2ccco2)C(=O)COc2ccc(Cl)c(C)c2)cc1 -27.9%
CCC(C)NC(=O)CSc1nc2c(sc3ccccc32)c(=O)n1CCc1ccc(OC)c(OC)c1 (configuration not stated) -4.56%
O=C(O)CNC(=O)c1ccccc1I 1.47%
CCN1CCN(C(=O)Cn2c(-c3cccs3)cc3ccccc32)CC1 -6.83%
COc1nc(-c2ccccc2)ccc1-c1noc(-c2ccccc2Br)n1 10.2%
COC(=O)c1cccc(NC(=O)c2nsc3ccccc23)c1 -34.1%
COc1ccc(CCNC(=O)c2ccc3c(c2)N(Cc2ccccc2F)C(=O)c2ccccc2S3=O)cc1OC (configuration not stated) 6.84%
CCOc1ccccc1CNC(=O)CCc1c(C)nn(-c2ccc(N3CCOCC3)nn2)c1C -28.9%
COc1ccc(N2CCN(S(=O)(=O)CCNC(=O)COc3ccccc3F)CC2)cc1 -21.4%
CCOC(=O)CSc1nc(-c2ccc(Cl)cc2)cc(C(F)(F)F)c1C#N -9.94%
Cc1ccc(C(=O)Oc2c(S(=O)(=O)c3ccccc3)c(C)nn2-c2ccccc2)cc1 -25.9%
Cc1ccc(NC(=O)CCNS(=O)(=O)c2cccc3nonc23)cc1Cl -21.2%
Cc1cn2c(=O)cc(COC(=O)c3cccc(NC(=O)COc4ccccc4C)c3)nc2s1 -17.5%
Cc1ccc(Cc2nc3ccccc3nc2SCC(=O)N2CCCc3ccccc32)cc1 -1.77%
Cc1ccccc1N1C(=O)c2cc(S(N)(=O)=O)c(Cl)cc2NC1C (configuration not stated)
Cc1c(-c2nc(-c3ccccc3F)no2)nnn1-c1cc(F)ccc1F -53.7%
CCCNC(=O)C(C)n1nc(C)c2c(C)n(-c3ccccc3)nc2c1=O (configuration not stated) -4.92%
Cc1ccc(CNC(=O)CSc2c3c(nc4cc(Cl)ccc24)CCCC3)cc1 0.982%
O=c1oc2cc(O)ccc2cc1-c1nnc(Nc2ccccc2F)s1 95.9%
CC[C@H](NC(C)C)[C@H](O)c1ccc(O)c2[nH]c(=O)ccc12
CCOc1ccccc1NC(=O)Cn1c(=O)n(Cc2ccco2)c(=O)c2ccc(C(=O)NC3CCCC3)cc21 -10.6%
COc1ccc(Cl)cc1NC(=O)Cn1nc(Cc2ccncc2)c2ccccc2c1=O -11.9%
COc1ccccc1NC(=O)N1CCC(CN2CCc3ccccc3C2)CC1 -9.23%
Cc1cc(F)ccc1NC1(c2ccccc2)C(=O)c2ccccc2C1=O -10.5%
Cc1ccc(OC(=O)CSc2nnc(-c3cccs3)o2)cc1C -1.87%
CCn1cc(C(=O)NCCc2ccc(OC)c(OC)c2)c(=O)c2cc(S(=O)(=O)N3CCC(C)CC3)ccc21 -4.04%
CC(C)COC(=O)c1ccc(N)cc1 31.3%
CCOc1ccc(N(CC(=O)Nc2ccccc2CC)S(=O)(=O)c2c(C)[nH]c(=O)[nH]c2=O)cc1 -12.6%
Cc1ccc(NC(=O)c2sc3nc[nH]c(=O)c3c2C)cc1Cl 53.1%
Cc1ccc(NC(=O)Cn2c(=O)oc3ccccc32)cc1C -18.2%
COC(=O)c1c(NC(=O)c2cc(OC)c(OC)c(OC)c2Br)sc2c1CCC(C)C2 (configuration not stated) 22.3%
COc1ccc(CNC(=O)CCn2nc(C)c3c(C)n(-c4ccccc4)nc3c2=O)c(OC)c1 11.2%
CNC(=O)Cn1c(=O)c2cccn2c2ccc(F)cc21 7.42%
O=C(CCNS(=O)(=O)c1cccc2nsnc12)NCc1ccccc1 -3.75%
CC(C)CNc1ncnc2c1nnn2C -8.33%
COc1ccc(CNC(=O)c2ccc3nc(CCc4ccccc4)oc3c2)c(OC)c1 -17.6%
COc1ccc(OC)c(C2C(C(=O)N3CCCCC3)=C(C)Nc3nc4ccccc4n32)c1 (configuration not stated) -6.08%
CC(C)(C)c1ccc(CN(Cc2ccco2)c2cnc(S(C)(=O)=O)nc2C(=O)Nc2ccc(F)cc2)cc1 -29.9%
Cc1cc(C)c(NC(=O)Cn2c(=O)nc(-c3ccccc3)c3cc(Cl)ccc32)c(C)c1 -10.6%
